Measured values from PubChem BioAssay AID651820 (National Center for Advancing Translational Sciences (NCATS), 2012).
Among all 340,000 compounds or so, about 12,000 (3.5%) were called active. The shares of active, inactive and inconclusive entries below differ from those in the screen. The call rests on the fitted dose curve; in most records, active means well fitted inhibition curve with a large enough effect; inconclusive means small, poorly fitted or top-dose-only effect, or another doubt; inactive means no such curve, though single readings can be large or run the other way. Potencies of inconclusive entries are left out as doubtful fits.

Assay: qHTS Assay for Inhibitors of Hepatitis C Virus (HCV)
Conditions: Huh7.5.1 HCVcc-Cre (HCVcc is cell-culture hepatitis C virus) infection, luciferase reporter, 44 h; series mostly up to 41.8 µM
Outline: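 A cell-based infection assay in which seeded cells (1,000 per well) receive test compound after 4 h, are inoculated with HCVcc-Cre at approximately 0.5 moi, and are incubated 44 h before luminescence detection.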
Potency means the concentration at half of the fitted maximal effect; tags describe the fitted curve by direction and shape.

| SMILES | Potency |
| --- | --- |
| CC1(C)CC2C1CCC1(O)CC2(C)CCC1N(O)c1ccc(C(=O)NCCO)cn1 (stereo not drawn) | inconclusive [inhibitor, full curve, poor fit] |
| c1ccc(-c2nc(N3CCCCC3)nc3ccccc23)cc1 | inconclusive [inhibitor, single point] |
| c1ccc(CSc2nnc(-c3c[nH]c4ccccc34)o2)cc1 | inactive |
| CCOc1ccc(NS(=O)(=O)c2ccc(NC(=O)C3CC3)cc2)cc1 | inconclusive [inhibitor, single point] |
| COC(=O)C1=C(c2cc3ccccc3s2)C[C@@H]2CC[C@H]1N2C(=O)N1CCCC1 | inconclusive [inhibitor, partial curve] |
| CCN(CC(=O)NCc1ccc(Cl)cc1)C(=O)C(C)Sc1ccccc1 (stereo not drawn) | inactive |
| COc1ccc(-n2c(SCc3ccc([N+](=O)[O-])cc3)nnc2-c2ccccc2)cc1 | inconclusive [inhibitor, partial curve] |
| CN(CC(=O)NC1CCCCC1)S(=O)(=O)c1ccc(Cl)cc1 | inactive |
| CCOc1cc(NC(=S)NCCCOC)c(OCC)cc1NC(=O)c1ccco1 | inconclusive [inhibitor, single point] |
| O=C1C=CC(O)(c2cc(=O)c3c(O)cc(O)cc3o2)C=C1 | inconclusive [inhibitor, single point] |
| CC(=NC(C)C)C1=C(O)CCC1=O | inactive |
| O=C(Nc1ccc(-c2csc(Nc3cccc(C(F)(F)F)c3)n2)cc1)c1ccccc1 | inconclusive [inhibitor, full curve] |
| Cn1c(=O)[nH]c(=O)c2c1nc(Br)n2CCC(=O)c1ccccc1 | inactive |
| O=C(N/N=C/c1ccccn1)c1cc(-c2ccc(Br)cc2)nc2ccccc12 | inconclusive [inhibitor, single point] |
| COc1ccc(C(C)=O)cc1CN(c1ccccc1OC)S(=O)(=O)c1cccs1 | inconclusive [inhibitor, single point] |
| COc1ccc(C(CNC(=O)Nc2ccc(Cl)cc2)N2CCN(C)CC2)cc1 (stereo not drawn) | inconclusive [inhibitor, single point] |
| CN(CCc1ccccc1)C(=O)c1ccc(NC(=O)Cc2ccc([N+](=O)[O-])cc2)cc1 | inconclusive [inhibitor, single point] |
| CCN1CCN(c2nc(NCCO)c3ccccc3n2)CC1 | inactive |
| Cc1cc(=O)oc2c1ccc1oc(/C(=N/O)c3ccccc3)c(C)c12 | active: 6.31 µM |
| COc1ccccc1NS(=O)(=O)c1ccc(C(=O)OCC(=O)NCc2ccco2)cc1 | inactive |
| O=C(NNC1=C(C(=O)C(F)(F)F)CCC1)c1ccccc1O | inactive |
| Cc1ccccc1C(=O)N1CC(=O)Nc2ccc(F)cc2C1c1ccc(F)cc1 (stereo not drawn) | inconclusive [inhibitor, full curve] |
| C1CN(CC2CCN(c3nc4nonc4nc3N3CCSCC3)CC2)CCO1 | inactive |
| COc1ccc(CNC(=O)C(c2ccc(C)o2)N(C(=O)c2snc(C(N)=O)c2N)c2ccccc2OC)cc1 (stereo not drawn) | inconclusive [inhibitor, partial curve] |
| CNc1snc(C)c1C(=O)OCC(=O)Nc1ccc(C)cc1F | inconclusive [inhibitor, partial curve] |

| SMILES | Potency |
| --- | --- |
| O=[N+]([O-])c1ccc(N/N=C/c2ccccc2O)cc1 | inconclusive [inhibitor, single point] |
| CCC(C)NC(=O)CSc1nc2c(sc(=S)n2Cc2ccco2)c(=O)n1-c1ccccc1 (stereo not drawn) | inconclusive [inhibitor, single point] |
| COc1ccc(C(=O)N(C)C2CCCc3ccccc32)cc1OC1CCN(C(C)C)CC1 (stereo not drawn) | inconclusive [inhibitor, single point] |
| NS(=O)(=O)c1ccc(CCNCc2cc(Cl)ccc2OCc2ccccc2)cc1 | active: 22.4 µM |
| O=C(CCN1CCN(c2ccccc2)CC1)N/N=C/c1ccc(O)c(O)c1O | inconclusive [inhibitor, partial curve] |
| COc1ccc(F)cc1CSc1nnnn1-c1ccc(O)cc1 | inconclusive [inhibitor, single point] |
| O=C1c2ccccc2C(=O)N1CCC(=O)N1CCCc2ccccc21 | inactive |
| Nc1c(C(=O)c2ccc(Cl)cc2)sc2nsc(SCCN3CCOCC3)c12 | inconclusive [inhibitor, single point] |
| O=[N+]([O-])c1cc(C(F)(F)F)cc([N+](=O)[O-])c1N1CCN(S(=O)(=O)c2ccccc2)CC1 | inconclusive [inhibitor, partial curve] |
| C=CCN1CCc2cccc3c2[C@H]1Cc1ccc(O)c(O)c1-3 | inconclusive [inhibitor, single point] |
| Cc1ccc2oc(-c3cccc(NC(=O)c4ccc(Br)o4)c3C)nc2c1 | inactive |
| CC(C)NC(=O)c1nc2ccccc2s1 | inactive |
| COc1cc(NC(=O)c2ccccc2)ccc1NC(=O)c1cc2ccccc2o1 | inconclusive [inhibitor, partial curve] |
| Cc1ccc(N2CCN(C(=O)c3ccccc3NC(=O)c3ccccc3C(=O)O)CC2)cc1 | inactive |
| Oc1ccccc1-c1cc(-c2cccc(F)c2)n[nH]1 | inconclusive [inhibitor, single point] |
| CCc1ccc(OCC(=O)Nc2ccncc2)c(Br)c1 | inconclusive [inhibitor, single point] |
| CCOc1ccc(NC(=O)c2ccncc2)cc1 | inactive |
| O=C(Nc1nc2ccccc2n1CCN1CCCC1)c1ccc(Cl)cc1 | inconclusive [inhibitor, partial curve] |
| O=C(NNC(=S)NC(=O)c1cccnc1)c1ccc(Cl)cc1 | inconclusive [inhibitor, partial curve] |
| COc1ccc(C2=NO[C@@H]3C(=O)N(c4c(C)cccc4C)C(=O)[C@H]23)cc1OC | inactive |
| CCOc1ccc(OCCC(=O)OCC(=O)NCc2ccc(Cl)cc2)cc1 | inactive |
| Cc1ccccc1-c1cc(C(=O)NCc2cccc(Br)c2)nn1CC1CC(c2cccc([N+](=O)[O-])c2)=NO1 (stereo not drawn) | inconclusive [inhibitor, single point] |
| FC(F)Oc1ccc(NC(=S)Nn2cnnc2)cc1 | active: 5.01 µM |
| COc1ccccc1NC(=O)c1ccc(SCC(=O)NCc2ccccc2Cl)c([N+](=O)[O-])c1 | inconclusive [inhibitor, partial curve] |
| CC(=O)c1c(C)[nH]c(C(=O)CN2CCN(S(=O)(=O)c3ccccc3)CC2)c1C | inactive |

| SMILES | Potency |
| --- | --- |
| Cc1ccccc1N(CC(=O)Nc1ccccc1C(=O)NCc1ccco1)S(=O)(=O)c1ccccc1 | inconclusive [inhibitor, single point] |
| CCN1CCN(CCCNC(=O)c2ccc3c(=O)n(CCc4ccccc4)c(=O)[nH]c3c2)CC1 | active: 10 µM |
| COc1cc(C)nc(N2CCCC(C(=O)Nc3cc(Cl)ccc3OC)C2)n1 (stereo not drawn) | inconclusive [inhibitor, single point] |
| Cc1ccc(NC(=S)N(CCCN2CCN(C)CC2)Cc2cccs2)cc1 | inconclusive [inhibitor, single point] |
| Cn1c(CCNC(=O)c2ccco2)nc2ccccc21 | inactive |
| CCCC(C)NC(=O)CN1C(=O)NC2(CCc3ccccc32)C1=O (stereo not drawn) | inactive |
| O=C(c1ccccc1Sc1cccc2ccccc12)N1CCOCC1 | inconclusive [inhibitor, single point] |
| COc1ccc(C(CNC(=O)c2cc3c(s2)CCC(C)C3)N2CCCC2)cc1 (stereo not drawn) | active: 10 µM |
| COc1ccccc1CNC(=O)c1cc(-c2ccccc2)nn1CC1CC(c2cccc([N+](=O)[O-])c2)=NO1 (stereo not drawn) | inconclusive [inhibitor, full curve] |
| O=C(c1ccccc1)N1CCN(c2ccc([N+](=O)[O-])c(NCC3CCCO3)c2)CC1 (stereo not drawn) | inconclusive [inhibitor, partial curve] |
| CCOc1ccc2nc(NC(=O)c3ccc(C)o3)sc2c1 | inconclusive [inhibitor, single point] |
| O=c1c(Cc2c(F)cccc2Cl)c(O)ccn1C1CCCCCC1 | inactive |
| COc1cc(CCC(=O)Nc2c(C(=O)N3CCN(c4ccccc4OC)CC3)oc3ccccc23)on1 | inconclusive [inhibitor, full curve] |
| CNC(=O)COc1coc(CN2CCN(c3ccccc3)CC2)cc1=O | inactive |
| Nc1ccc(Cc2ccccn2)cc1 | inactive |
| CCOc1ccc(/C=N/NC(=O)c2ccc(CSc3nc4ccccc4[nH]3)cc2)cc1 | inconclusive [inhibitor, full curve] |
| CC1CN(C(=O)CSc2cn(CC(=O)N3CCOCC3)c3ccccc23)CC(C)O1 (stereo not drawn) | inactive |
| CCNC(=O)NC(C(=O)OC)C12CC3CC(CC(C3)C1)C2 (stereo not drawn) | inactive |
| COc1cccc(C(=O)NN2CCOCC2)c1 | inactive |
| COc1ccc2c(c1)c(CC(=O)O)c(C)n2C(=O)c1ccc(Cl)cc1 | inconclusive [inhibitor, partial curve, poor fit] |
| Cc1ccc(NC(=O)C(OC(=O)c2cnc(C)cn2)c2ccccc2)c([N+](=O)[O-])c1 (stereo not drawn) | inactive |
| CCc1nnc(NC(=O)c2nn(-c3ccccc3)nc2C)s1 | inconclusive [inhibitor, single point] |
| O=C(CS(=O)(=O)c1ccccc1)Nc1ccc(Br)cn1 | inactive |
